From publication PMC10668032
The other results are listed elsewhere or left out. At the low end of the ranking the order means little.

Biological target: SIX1 homeodomain (reference allele) (UniProt Q15475)
Assay: universal protein binding microarray
Conditions: Universal all-10-mer PBM (8x60K, AMADID 030236), 300 nM GST-tagged protein, Alexa Fluor 488 anti-GST; buffer, salt, pH and temperature not stated; high values mean tight binding; most listed sequences are background and not binding sites; double strand, one strand shown

| Sequence | binding signal [E-score] |
| --- | --- |
| CCAGGAAC | -0.0778 |
| CCAATATC | 0.369 |
| ACTGGCAT | 0.0418 |
| AAAGGTAT | 0.337 |
| ATCTCGGA | 0.22 |
| GAGACTCC | -0.0466 |
| ATCACATA | 0.274 |
| GTTCATAA | -0.0743 |
| AAGCCTCA | -0.297 |
| CAGGGAGA | 0.0903 |
| GTGCACAC | -0.0414 |
| GAATGTCA | -0.259 |
| ATTGAGGG | -0.121 |
| ACTGCGGC | -0.274 |
| AAGACGGG | 0.0984 |
| AAGGACCA | -0.182 |
| CTTAGTCC | -0.213 |
| ATTTCTAA | -0.231 |
| TATTTGCA | -0.0858 |
| ACAGTCGC | -0.246 |
| CAATTTTC | -0.164 |
| GGACCTCC | -0.335 |
| ACTCCCTG | -0.136 |
| AAGCCGAT | 0.211 |
| GATCAATA | 0.291 |

| Sequence | binding signal [E-score] |
| --- | --- |
| TGACGCCA | 0.00364 |
| CAATGACA | 0.198 |
| CAGTTTTC | -0.132 |
| AACTTTCA | -0.304 |
| TTCTGAAA | -0.141 |
| CTATTTGA | -0.175 |
| AAGCGACG | -0.304 |
| ACACCGCA | 0.351 |
| CCAGCCTA | 0.034 |
| AAGAGCCG | -0.0656 |
| ACCGCCTG | 0.232 |
| CTGACCGC | -0.181 |
| CTAGCAGC | -0.247 |
| CCTCCACC | -0.111 |
| GCGCAGGA | -0.0736 |
| ATTCGGTG | 0.105 |
| CTCCGTTA | -0.2 |
| GATCCAAA | 0.207 |
| GGATACAA | 0.354 |
| GGTAAGAC | 0.0152 |
| TATACCAA | 0.347 |
| GTTACGTA | -0.0357 |
| GGGCGCAC | -0.215 |
| GATACGGA | 0.455 |
| GCTTCACC | -0.0697 |

| Sequence | binding signal [E-score] |
| --- | --- |
| ACCAGGTG | -0.058 |
| CCGTAGTA | 0.016 |
| AGAACTTC | -0.269 |
| AGGAATTC | -0.216 |
| ATCCCAAC | 0.189 |
| TTACTAAA | -0.0326 |
| CCACGGCA | -0.0497 |
| TCTCCACA | 0.0349 |
| AGCGTGAA | -0.19 |
| CTGCTAAG | -0.116 |
| AGCTCAAC | -0.0317 |
| GATTTCCA | -0.209 |
| AACCGTTG | -0.2 |
| TAGTGATA | 0.415 |
| CGGGGAAG | 0.0699 |
| CTTATACA | -0.0862 |
| AACATATC | 0.378 |
| AGGACCCT | -0.208 |
| CGGTTGAG | -0.0062 |
| AGATAACC | 0.0384 |
| ATGATGAA | -0.0389 |
| CAACACTG | -0.231 |
| CCACTAGG | -0.212 |
| CGTCGAAG | -0.143 |
| AACACCTG | 0.267 |

| Sequence | binding signal [E-score] |
| --- | --- |
| ATTGAATC | -0.067 |
| AGTACTTC | -0.174 |
| GTATTGAA | 0.213 |
| ACTAAATA | 0.115 |
| AATCTGAA | -0.108 |
| ACCTAAGC | 0.108 |
| AAGCCATC | 0.00588 |
| GCCCCCCA | -0.183 |
| AGGCTCAT | 0.231 |
| TTAGTAAA | -0.0186 |
| ACTTATGC | -0.127 |
| GGGCAAGA | 0.0833 |
| CTAGCGTC | -0.0267 |
| ACTCTTCC | -0.205 |
| GCCCGCCC | -0.139 |
| AGTTCCGA | 0.0514 |
| CGCGATCA | 0.272 |
| CCATCGAC | -0.252 |
| ATGCAGCC | -0.038 |
| GCGTAAAC | -0.145 |
| AAACCCGT | -0.0897 |
| ACAACCGA | -0.0566 |
| ATCTGAGA | 0.292 |
| AGAGGTTC | -0.00602 |
| AAGAGGCA | -0.126 |

| Sequence | binding signal [E-score] |
| --- | --- |
| TGGAAAAA | -0.0229 |
| ACTGTAGC | -0.0697 |
| AAAATATG | -0.0067 |
| ATAAGTAA | -0.0603 |
| ATCATTTA | 0.193 |
| CAATAATA | 0.223 |
| GCCGTGAA | -0.227 |
| TGATAAAA | -0.0775 |
| CTCATGTC | 0.0335 |
| CTGACGAA | -0.123 |
| GTGGGCGA | 0.00457 |
| AGGGCACG | -0.0732 |
| ATAACGTC | 0.126 |
| CTATTACC | 0.027 |
| CCACGTCA | -0.158 |
| ACTCCGAA | -0.0841 |
| CCGTCGAA | -0.148 |
| AGAAGAGC | -0.165 |
| AAGTAAAA | -0.24 |
| AACGAGGG | -0.0678 |
| CCCTCGCG | -0.0319 |
| AAGTTACG | -0.0423 |
| CATTTCTC | -0.205 |
| CGACGAGA | -0.173 |
| CGTAGCCA | -0.0417 |

| Sequence | binding signal [E-score] |
| --- | --- |
| CCCTTAGG | -0.0538 |
| AATTAAGA | -0.146 |
| CGTCGCGC | -0.0395 |
| CGAGAACG | -0.203 |
| CAACGGAA | -0.158 |
| ATAACGCC | -0.157 |
| AATGCCTC | -0.143 |
| ACGAACAG | -0.0368 |
| ATGCTGTA | -0.0886 |
| CCCGTGAG | -0.0774 |
| ACCACCGA | 0.164 |
| TACGTATA | 0.272 |
| ACGGACCG | -0.268 |
| GTCCTATA | 0.0273 |
| CTTTTGCC | 0.00717 |
| CCCTTCTC | 0.274 |
| CCGTAGTC | -0.105 |
| AGCACTTG | -0.302 |
| CCTATGCC | -0.201 |
| AGCCTGAC | -0.253 |
| CCTGCCTC | -0.21 |
| GCTTTTGA | -0.167 |
| ATGACCAC | -0.248 |
| ATAACAAA | -0.208 |
| CGGAGCCC | -0.247 |

| Sequence | binding signal [E-score] |
| --- | --- |
| ACTAAGTC | -0.217 |
| CTCGCCCA | 0.0455 |
| AATAAAGA | 0.0192 |
| GCGACGAA | -0.19 |
| GGCGATCA | 0.338 |
| CTGTCCAC | -0.247 |
| AATGTCGA | -0.276 |
| CACAAGCA | -0.225 |
| CTAGAGTC | -0.214 |
| CTGATCGA | 0.0295 |
| AGTGGTAG | 0.0831 |
| GAGGACAA | -0.207 |
| GGCGCTGA | -0.144 |
| ACTTCGAG | -0.212 |
| GTTGGGAA | -0.164 |
| GAGTTCCA | -0.0689 |
| GGTTAAGA | -0.0563 |
| CATTCCGA | 0.00948 |
| CCGGTGAC | -0.0227 |
| AGAATTTG | 0.0245 |
| CCCCCCCG | 0.0652 |
| CCCCGCGA | 0.229 |
| GGGTGCAC | -0.0522 |
| GATACTCC | 0.45 |
| GGTGGTAC | -0.0698 |

| Sequence | binding signal [E-score] |
| --- | --- |
| GCAGGCCA | -0.0447 |
| GGTCTCAC | 0.203 |
| GCAATTAA | -0.156 |
| CTTATCCC | 0.235 |
| ATTGAAAG | -0.175 |
| CGCTGAAA | -0.286 |
| ACGTACAA | -0.232 |
| ACGCGTAC | -0.206 |
| AGGGGTAA | 0.0876 |
| CCTCAAAA | -0.156 |
| CATGGTAA | -0.024 |
| CGCATGTA | 0.0569 |
| GTCGCCGA | -0.0221 |
| GAGCATCA | -0.0944 |
| ACTGAGTC | 0.00613 |
| ATGAATCA | -0.0867 |
| AAATCATA | -0.0187 |
| ATTCAAAC | -0.0635 |
| AACTTAGT | -0.148 |
| AGGGTTCC | 0.0139 |
| AGGATGTG | 0.0034 |
| ACATTTAG | -0.146 |
| CAGATGTA | 0.0903 |
| ACTATATA | 0.247 |
| ATAAGGGC | -0.0133 |

| Sequence | binding signal [E-score] |
| --- | --- |
| TGCGGCCA | -0.28 |
| GATGCGGC | -0.112 |
| AGGGGCCG | -0.238 |
| CCCATGTC | -0.0913 |
| AAATCAAC | -0.157 |
| AGAGTCAT | -0.172 |
| CGACGCAA | -0.0949 |
| AACCCGTA | 0.143 |
| CAACAACC | -0.183 |
| GGAACTCA | -0.021 |
| CGGATGTC | 0.0747 |
| ATTACACC | 0.318 |
| AGGCCACT | -0.192 |
| GGGTTCAA | -0.0134 |
| TATATTAA | 0.222 |
| CTAAAGGC | -0.301 |
| GGCACTGA | 0.0152 |
| ACGCAGCG | -0.0725 |
| ACTTACAC | 0.0852 |
